# The supplement of paper PMC8728848
# This is one part of the list.
# B1: MpAFP NterminalRI GFP (Marinomonas primoryensis) (protein)
# chain: MSDNQFPFATLGNAIGFITKLDGSVTVQSIDGQERVLKLGDPIFFGETVLTGGSGSVTIAFVDGTDVVIGGDSIVEMTDEIYNTGDNEDLVADSSSEIDALQNAILAGDDPTLIQDAPAAGNTLADQQRVDVSIERNDNSAQAGFGVDTQSSLPTYGYDTDNGNGGQATEREYSAPSLSRTLNQSPLLEHHHHHH
# Assays:
# Assay in all cases: glycan array binding signal (z-score within array); higher = stronger binding
# Settings in all cases: glycan notation: IUPAC condensed, linker removed
# Gal6S(b1-4)Glc = biological target: Gal6S(b1-4)Glc
# Procedure, shortened: (§1)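 Glycan array binding is given as a within-array Z-score, which can be read as non-binding when negative. The arrays, 3228 of them, came from the Consortium for Functional Glycomics database and were retained only where the protein sequence was available. Z-scores were averaged across arrays of the same protein sequence at different concentrations or buffers and across linkers.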
# Gal6S(b1-4)Glc6S = biological target: Gal6S(b1-4)Glc6S
# Procedure, shortened: as §1
# Gal6S(b1-4)GlcNAc = biological target: Gal6S(b1-4)GlcNAc
# Procedure, shortened: as §1
# Gal6S(b1-4)GlcNAc6S = biological target: Gal6S(b1-4)GlcNAc6S
# Procedure, shortened: as §1
# GalNAc(a1-3)Gal = biological target: GalNAc(a1-3)Gal
# Procedure, shortened: as §1
# GalNAc(a1-3)GalNAc = biological target: GalNAc(a1-3)GalNAc
# Procedure, shortened: as §1
# [1] = biological target: GalNAc(a1-3)GalNAc(b1-3)Gal(a1-4)Gal(b1-4)Glc
# Procedure, shortened: as §1
# [2] = biological target: GalNAc(a1-3)GalNAc(b1-3)Gal(a1-4)Gal(b1-4)GlcNAc
# Procedure, shortened: as §1
# GalNAc(b1-3)Gal = biological target: GalNAc(b1-3)Gal
# Procedure, shortened: as §1
# [3] = biological target: GalNAc(b1-3)Gal(a1-4)Gal(b1-4)GlcNAc
# Procedure, shortened: as §1
# [4] = biological target: GalNAc(b1-3)Gal(a1-4)Gal(b1-4)GlcNAc(b1-3)Gal(b1-4)Glc
# Procedure, shortened: as §1
# [5] = biological target: GalNAc(b1-3)Gal(a1-6)Gal(b1-4)Glc
# Procedure, shortened: as §1
# GalNAc(b1-3)GalNAc = biological target: GalNAc(b1-3)GalNAc
# Procedure, shortened: as §1
# GalNAc(b1-3)GlcNAc = biological target: GalNAc(b1-3)GlcNAc
# Procedure, shortened: as §1
# GalNAc(b1-4)Gal(b1-4)Glc = biological target: GalNAc(b1-4)Gal(b1-4)Glc
# Procedure, shortened: as §1
# GalNAc(b1-4)GlcNAc = biological target: GalNAc(b1-4)GlcNAc
# Procedure, shortened: as §1
# [6] = biological target: GalNAc(b1-4)GlcNAc(b1-2)Man
# Procedure, shortened: as §1
# [7] = biological target: GalNAc(b1-4)GlcNAc(b1-2)Man(a1-3)[GalNAc(b1-4)GlcNAc(b1-2)Man(a1-6)]Man(b1-4)GlcNAc(b1-4)GlcNAc
# Procedure, shortened: as §1
# [8] = biological target: GalNAc(b1-4)GlcNAc(b1-3)GalNAc(b1-4)GlcNAc
# Procedure, shortened: as §1
# GalNAc(b1-4)GlcNAc6S = biological target: GalNAc(b1-4)GlcNAc6S
# Procedure, shortened: as §1
# GalNAc(b1-6)GalNAc = biological target: GalNAc(b1-6)GalNAc
# Procedure, shortened: as §1
# GalNAc3S(b1-4)GlcNAc = biological target: GalNAc3S(b1-4)GlcNAc
# Procedure, shortened: as §1
# GalNAc3S(b1-4)GlcNAc3S = biological target: GalNAc3S(b1-4)GlcNAc3S
# Procedure, shortened: as §1
# [9] = biological target: GalNAc3S(b1-4)[Fuc(a1-3)]GlcNAc
# Procedure, shortened: as §1
# GalNAc4S6S(b1-4)GlcNAc = biological target: GalNAc4S6S(b1-4)GlcNAc
# Procedure, shortened: as §1
# GalNAc6S(b1-4)GlcNAc = biological target: GalNAc6S(b1-4)GlcNAc
# Procedure, shortened: as §1
# Glc(a1-4)Glc = biological target: Glc(a1-4)Glc
# Procedure, shortened: as §1
# [10] = biological target: Glc(a1-4)Glc(a1-4)Glc(a1-4)Glc
# Procedure, shortened: as §1
# Glc(a1-6)Glc(a1-6)Glc = biological target: Glc(a1-6)Glc(a1-6)Glc
# Procedure, shortened: as §1
# [11] = biological target: Glc(a1-6)Glc(a1-6)Glc(a1-6)Glc
# Procedure, shortened: as §1
# Glc(b1-4)Glc = biological target: Glc(b1-4)Glc
# Procedure, shortened: as §1
# Glc(b1-6)Glc = biological target: Glc(b1-6)Glc
# Procedure, shortened: as §1
# GlcA(b1-3)Gal = biological target: GlcA(b1-3)Gal
# Procedure, shortened: as §1
# GlcA(b1-3)GlcNAc = biological target: GlcA(b1-3)GlcNAc
# Procedure, shortened: as §1
# GlcA(b1-6)Gal = biological target: GlcA(b1-6)Gal
# Procedure, shortened: as §1
# [12] = biological target: GlcA3S(b1-3)Gal(b1-4)GlcNAc(b1-2)Man
# Procedure, shortened: as §1
# [13] = biological target: GlcA3S(b1-3)Gal(b1-4)GlcNAc(b1-3)Gal(b1-4)Glc
# Procedure, shortened: as §1
# [14] = biological target: GlcNAc(a1-3)Gal(b1-4)GlcNAc
# Procedure, shortened: as §1
# [15] = biological target: GlcNAc(a1-4)Gal(b1-3)GlcNAc
# Procedure, shortened: as §1
# [16] = biological target: GlcNAc(a1-4)Gal(b1-4)GalNAc
# Procedure, shortened: as §1
# [17] = biological target: GlcNAc(a1-4)Gal(b1-4)GlcNAc
# Procedure, shortened: as §1
# [18] = biological target: GlcNAc(a1-4)Gal(b1-4)GlcNAc(b1-3)Gal(b1-4)Glc
# Procedure, shortened: as §1
# [19] = biological target: GlcNAc(a1-4)Gal(b1-4)GlcNAc(b1-3)Gal(b1-4)GlcNAc
# Procedure, shortened: as §1
# [20] = biological target: GlcNAc(a1-4)Gal(b1-4)GlcNAc(b1-3)Gal(b1-4)GlcNAc(b1-3)Gal(b1-4)GlcNAc
# Procedure, shortened: as §1
# [21] = biological target: GlcNAc(a1-4)Gal(b1-4)GlcNAc(b1-3)Gal(b1-4)[Fuc(a1-3)]GlcNAc(b1-3)Gal(b1-4)[Fuc(a1-3)]GlcNAc
# Procedure, shortened: as §1
binder,measurement,setting,value
B1,glycan array binding signal (z-score),Gal6S(b1-4)Glc,0.469
same,glycan array binding signal (z-score),Gal6S(b1-4)Glc6S,-0.417
same,glycan array binding signal (z-score),Gal6S(b1-4)GlcNAc,-0.561
same,glycan array binding signal (z-score),Gal6S(b1-4)GlcNAc6S,-0.595
same,glycan array binding signal (z-score),GalNAc(a1-3)Gal,-0.512
same,glycan array binding signal (z-score),GalNAc(a1-3)GalNAc,-0.539
same,glycan array binding signal (z-score),[1],-0.512
same,glycan array binding signal (z-score),[2],-0.421
same,glycan array binding signal (z-score),GalNAc(b1-3)Gal,-0.498
same,glycan array binding signal (z-score),[3],1.23
same,glycan array binding signal (z-score),[4],-0.509
same,glycan array binding signal (z-score),[5],-0.492
same,glycan array binding signal (z-score),GalNAc(b1-3)GalNAc,-0.576
same,glycan array binding signal (z-score),GalNAc(b1-3)GlcNAc,-0.452
same,glycan array binding signal (z-score),GalNAc(b1-4)Gal(b1-4)Glc,0.425
same,glycan array binding signal (z-score),GalNAc(b1-4)GlcNAc,-0.159
same,glycan array binding signal (z-score),[6],-0.503
same,glycan array binding signal (z-score),[7],0.093
same,glycan array binding signal (z-score),[8],0.909
same,glycan array binding signal (z-score),GalNAc(b1-4)GlcNAc6S,-0.611
same,glycan array binding signal (z-score),GalNAc(b1-6)GalNAc,-0.472
same,glycan array binding signal (z-score),GalNAc3S(b1-4)GlcNAc,-0.554
same,glycan array binding signal (z-score),GalNAc3S(b1-4)GlcNAc3S,-0.391
same,glycan array binding signal (z-score),[9],-0.39
same,glycan array binding signal (z-score),GalNAc4S6S(b1-4)GlcNAc,-0.507
same,glycan array binding signal (z-score),GalNAc6S(b1-4)GlcNAc,-0.557
same,glycan array binding signal (z-score),Glc(a1-4)Glc,0.959
same,glycan array binding signal (z-score),[10],-0.3
same,glycan array binding signal (z-score),Glc(a1-6)Glc(a1-6)Glc,-0.345
same,glycan array binding signal (z-score),[11],-0.16
same,glycan array binding signal (z-score),Glc(b1-4)Glc,0.784
same,glycan array binding signal (z-score),Glc(b1-6)Glc,-0.091
same,glycan array binding signal (z-score),GlcA(b1-3)Gal,-0.484
same,glycan array binding signal (z-score),GlcA(b1-3)GlcNAc,-0.343
same,glycan array binding signal (z-score),GlcA(b1-6)Gal,-0.407
same,glycan array binding signal (z-score),[12],-0.43
same,glycan array binding signal (z-score),[13],-0.393
same,glycan array binding signal (z-score),[14],0.258
same,glycan array binding signal (z-score),[15],-0.357
same,glycan array binding signal (z-score),[16],-0.43
same,glycan array binding signal (z-score),[17],-0.415
same,glycan array binding signal (z-score),[18],-0.514
same,glycan array binding signal (z-score),[19],-0.444
same,glycan array binding signal (z-score),[20],-0.518
same,glycan array binding signal (z-score),[21],0.331
